# From PubChem BioAssay AID1345083 (National Center for Advancing Translational Sciences (NCATS), 2018)
# About 6,200 (6.6%) of roughly 94,000 compounds were called active. The inconclusive results got no clear call from the source; some entries with a clear call stand among them for comparison. Calls follow the shape of the dose curve; as a rule, active = well fitted inhibition curve with a large enough effect; inconclusive = small, poorly fitted or top-dose-only effect; inactive = flat fitted curve, though single readings scatter. Potencies of inconclusive entries are doubtful fits and often do not repeat.
# Test: Cytotoxic Profiling in HEK 293 Cell Line of Diverse Libraries Using Quantitative High-Throughput Screening; also: nearly all actives have a fitted effect of over 60% in size
# Settings: HEK 293 viability, ATP luminescence (CellTiter-Glo), 48-72 h; activity change, negative = cytotoxicity: at 115 µM (top of the series) unless noted; series mostly up to 115 µM
# Method in brief: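 HEK 293 cells seeded at 250 cells/well were exposed to compound for 48 or 72 hr at 37 degree Celsius. Viability taken as ATP content by CellTiter-Glo luminescence.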
# % is scaled to controls: 0 for no effect and ±100 for the full control effect; potency is read from the fitted curve at half-maximal effect; tags tell the direction and shape of the fitted curve.
SMILES,"activity change, negative = cytotoxicity",Potency,outcome
CC(C)C(=O)N1CCC2(CC1)OCC(C(=O)NCc1ccc3c(c1)OCO3)N2C(=O)c1ccccc1 (stereo not drawn),inactive: -23.7%,,
O=C(c1cc(COc2c(F)cccc2F)on1)N1CCCCC1CCc1ccccc1 (stereo not drawn),inactive: -16.4%,,
COc1ccc(-c2ccc3ncc(Nc4ccc5c(c4)OCO5)n3n2)cn1,,"inconclusive: 100 µM [inhibitor, partial curve]",
O=C(c1ccccc1)N1CCCC(C(=O)N2CCC(N3CCCC3=O)CC2)C1 (stereo not drawn),inactive: 0.376%,,
COCC1CN(C2CCC2)CC12CCN(C(=O)c1ccc(OC)c(F)c1)CC2 (stereo not drawn),,"inconclusive: 79.4 µM [inhibitor, partial curve]",
Cc1ccc(CN2CCC3(CC2)CN(c2ccncn2)CC3CO)o1 (stereo not drawn),,"inconclusive: 56.2 µM [inhibitor, partial curve, poor fit]",
Cc1nc(-c2cccc(NC(=O)N[C@H](C)c3onc(C)c3C(=O)O)c2)no1,,,inactive [at 172 µM]
O=C(COc1ccccc1)Nc1ccc2ncnc(N3CCCCC3)c2c1,,"inconclusive: 39.8 µM [inhibitor, partial curve, poor fit]",
CCn1cnnc1CC1CCCN(S(=O)(=O)c2ccccc2C)C1 (stereo not drawn),,"inconclusive: 89.1 µM [inhibitor, single point]",
O=C(NCc1ccnc2[nH]ccc12)c1ccc(C(F)(F)F)cc1,,"inconclusive: 56.2 µM [inhibitor, partial curve, poor fit]",
COc1ccc(CCN2Cc3cc(NC(=O)Cc4ccccc4)ccc3OC(C)C2=O)cc1 (stereo not drawn),,"inconclusive: 89.1 µM [inhibitor, single point]",
C=CCNC(=O)Cn1nc2c(cc1=O)CCCCC2,inactive: -8.09%,,
O=C(NCCC1CCCCC1)C1CCCN1C(=O)c1cccc(-c2ccccn2)c1 (stereo not drawn),,"inconclusive: 50.1 µM [inhibitor, partial curve, poor fit]",
O=C1CCN(CC(O)C(F)(F)F)c2ccc(F)cc2CN1CC1CC1 (stereo not drawn),inactive: -36.6%,,
Cc1cnc(C2CCN(S(=O)(=O)c3ccccc3)C2)n1C(C)C (stereo not drawn),inactive: -17.6%,,
O=C(c1ccccc1Cl)N1CCC2(CC1)CC(O)CCO2 (stereo not drawn),,"inconclusive: 100 µM [inhibitor, single point]",
Cc1cnc(C(=O)N2CCCC(Cc3noc(-c4ccccn4)n3)C2)cn1 (stereo not drawn),inactive: -23.8%,,
CCOc1ccccc1CN1CCC([C@@H]2CNC[C@H]2CO)CC1,inactive: -6.53%,,
CNC(=O)c1cc(C2CC2)nc2c1c(C1CCN(C(=O)Cc3cccc(Cl)c3)CC1)nn2C,,"inconclusive: 50.1 µM [inhibitor, partial curve, poor fit]",
O=C1Cc2c(-c3ccc(CO)cc3)n[nH]c2CN1CC1CCOCC1,inactive: -27.8% [at 172 µM],,
CC12CCC(=O)C=C1CCN(c1ccccc1)C2 (stereo not drawn),inactive: -22.1%,,
O=C(NCCc1ccccc1F)c1ccc2nnc(-c3ccc(OC(F)(F)F)cc3)n2c1,,"inconclusive: 50.1 µM [inhibitor, partial curve, poor fit]",

SMILES,"activity change, negative = cytotoxicity",Potency,outcome
O=C1[C@@H]2C[C@@H](CN2C(=O)c2ccno2)Oc2ccccc2N1Cc1ccc(OC(F)(F)F)cc1,,"inconclusive: 50.1 µM [inhibitor, partial curve, poor fit]",
Cc1ccc(-c2ncc(C(=O)NCc3ccccc3Cl)c(-c3ccncc3)n2)cc1,,"inconclusive: 25.1 µM [inhibitor, full curve]",
O=C(Cc1ccccc1)N1CCCN(c2cc(-c3ccc(Br)cc3)[nH]n2)CC1,,"inconclusive: 50.1 µM [inhibitor, partial curve, poor fit]",
CNC(=O)c1cc(C2CC2)nc2c1c(C1CCN(C(=O)Cc3ccc(OC)cc3)CC1)nn2C,,,inactive
COc1ccccc1C(=O)N1CC[C@H]2COC(=O)N2c2cc(F)ccc2C1,inactive: -4.7% [at 172 µM],,
CN(C)C[C@@H]1CN(Cc2ccccn2)C[C@H]1NC(=O)c1cc(F)cc(F)c1,,"inconclusive: 79.4 µM [inhibitor, partial curve, poor fit]",
CC(=O)Nc1cccc(-c2cc3c(ccn3C)c(C(=O)NCc3c(C)cc(C)[nH]c3=O)n2)c1,,"inconclusive: 44.7 µM [inhibitor, partial curve]",
O=C([C@@H]1C[C@H](F)CN1S(=O)(=O)c1cc(F)ccc1F)N1CCc2ccccc2C1,inactive: -12.8%,,
CC1(CCCCc2ccccc2)COc2ccc(C(=O)NC3CCC(O)CC3)cc2N1 (stereo not drawn),,active: 70.8 µM,
CCCS(=O)(=O)N1CCc2c(sc3ncnc(N(C)C)c23)C1,inactive: -10%,,
O=C(Cc1cccc(F)c1)N1CCC(n2cc(-c3nc(-c4ccccc4)no3)nn2)C1 (stereo not drawn),,"inconclusive: 56.2 µM [inhibitor, partial curve, poor fit]",
CC(CCNC(=O)c1cc(S(N)(=O)=O)ccc1F)N1CCN(C)CC1 (stereo not drawn),inactive: -30.5%,,
Cc1ccc(S(=O)(=O)N2CC[C@H](c3nc4ccccc4[nH]3)C2)cc1,,"inconclusive: 100 µM [inhibitor, partial curve, poor fit]",
Cc1ccc(C(=O)N2CCC(C(=O)N3CCC(c4ccccc4)CC3)CC2)cc1,,"inconclusive: 50.1 µM [inhibitor, partial curve, poor fit]",
COCCN1C(=O)c2cccn2CC1CNC(=O)CCc1ccccc1 (stereo not drawn),inactive: -7.01%,,
O=C1CCN(CC(O)Cc2ccccc2)c2ccccc2CN1CC1CC1 (stereo not drawn),,"inconclusive: 89.1 µM [inhibitor, single point]",
O=C(c1ccc2ccccc2c1)N1C[C@@H]2C[C@H](C1)c1ccc(NS(=O)(=O)c3cccc(F)c3)c(=O)n1C2,,"inconclusive: 56.2 µM [inhibitor, partial curve, poor fit]",
C[S+](=O)([O-])c1ccc(-c2cc(C(=O)NC3CC3)nn3cccc23)cc1,,"inconclusive: 50.1 µM [inhibitor, partial curve, poor fit]",
COc1ccc(CN2CCN3C(=O)N(Cc4ccc(C)cc4)C[C@H]3C2)cc1,,"inconclusive: 44.7 µM [inhibitor, partial curve, poor fit]",
COc1ccccc1-c1ccc(C(=O)N2CCC(C(=O)NCc3ccc(C(F)(F)F)cc3)CC2)cc1,,active: 35.5 µM,
CC(C)C[C@H]1NC(=O)[C@@H]2C[C@@H](NC(=O)CS(=O)(=O)c3ccccc3)CCN2C1=O,,,inactive [at 172 µM]
